Several values for one entry are separate records, joined by “and”; a condition that tells them apart may be missing. Equal values may be shown once. Where a name gives a salt, the structure may show the parent alone. Screen size: about 5,800 compounds; about 620 (11%) showed activity.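 How the source made its calls: active = score above a cut-off or among the top three wells of a plate; in these data no inactive exceeds 0.85.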 The list shows a part of the results, in another mix than the full data.
System: primary human hepatic stellate cells (donor 1)
Experiment: scaled lipid accumulation score (0 = DMSO-like, 1 = nortriptyline-like); higher = stronger HSC inactivation (lipid re-accumulation), active = hit call of the paper
Settings: 48 h
[1] = library stock concentration: 10 mM
[2] = library stock concentration: 3.33 mM
[3] = library stock concentration: 1 mM

N#C/C(=C\c1ccc(O)c(O)c1)C(=O)NCCc1ccccc1 [Tyrphostin AG 698]
scaled lipid accumulation score [1]: inactive: ≤ 0

O=c1cc(-c2ccccc2)[nH]c2nc(Cl)ccc12 [7-Chloro-4-hydroxy-2-phenyl-1,8-naphthyridine]
scaled lipid accumulation score [1]: inactive: ≤ 0

O=C(O)Cc1cccc(OCCCN(Cc2cccc(C(F)(F)F)c2Cl)CC(c2ccccc2)c2ccccc2)c1 [GW 3965 hydrochloride]
scaled lipid accumulation score [1]: inactive: ≤ -0.001

O=C(O)Cc1cccc(OCCCN(Cc2cccc(C(F)(F)F)c2Cl)CC(c2ccccc2)c2ccccc2)c1
scaled lipid accumulation score [2]: inactive: ≤ 0
scaled lipid accumulation score [1]: inactive: 0.181

O=c1[nH]c(=O)c2nc3ccccc3nc2[nH]1 [Alloxazine]
scaled lipid accumulation score [1]: inactive: ≤ 0

CC(=O)O[C@H]1C[C@@]2(C)[C@@H](C[C@@H](O)[C@H]3[C@@]4(C)CC[C@@H](O)[C@@H](C)[C@@H]4CC[C@@]32C)/C1=C(\CCC=C(C)C)C(=O)O [Fusidic acid]
scaled lipid accumulation score [1]: inactive: ≤ 0

CC(=O)O[C@H]1C[C@@]2(C)[C@@H](C[C@@H](O)[C@H]3[C@@]4(C)CC[C@@H](O)[C@@H](C)[C@@H]4CC[C@@]32C)/C1=C(\CCC=C(C)C)C(=O)O [Fusidic acid sodium]
scaled lipid accumulation score [1]: inactive: ≤ -0.07

CC(=O)O[C@H]1C[C@@]2(C)[C@@H](C[C@@H](O)[C@H]3[C@@]4(C)CC[C@@H](O)[C@@H](C)[C@@H]4CC[C@@]32C)/C1=C(\CCC=C(C)C)C(=O)O [Fusidic acid sodium salt]
scaled lipid accumulation score: inactive: ≤ 0

COc1cc(C2Oc3cc([C@H]4Oc5cc(O)cc(O)c5C(=O)[C@@H]4O)ccc3OC2CO)ccc1O (some centres not stated) [Silibinin]
scaled lipid accumulation score [2]: inactive: ≤ 0
scaled lipid accumulation score [1]: inactive: ≤ 0 and inactive: ≤ -0.027

COc1cc(C2Oc3cc([C@H]4Oc5cc(O)cc(O)c5C(=O)[C@@H]4O)ccc3OC2CO)ccc1O (some centres not stated) [Silymarin]
scaled lipid accumulation score [2]: inactive: ≤ 0
scaled lipid accumulation score [1]: inactive: ≤ 0

O=C1Nc2ccc(-c3cccnc3)cc2/C1=C/c1ccc[nH]1 [JAK3 Inhibitor VI]
scaled lipid accumulation score [2]: inactive: ≤ 0

O=c1[nH]c2cc(C(F)(F)F)ccc2n1-c1cc(C(F)(F)F)ccc1O
scaled lipid accumulation score [1]: inactive: 0.323
scaled lipid accumulation score (library stock concentration: 13.8 mM): inactive: 0.046

CN(C)CCn1nnnc1SCC1=C(C(=O)O)N2C(=O)[C@@H](NC(=O)Cc3csc(N)n3)[C@H]2SC1 [Cefotiam hydrochloride]
scaled lipid accumulation score: inactive: ≤ 0

N[C@@H](CCCC(=O)O)C(=O)O [L-2-aminoadipic acid]
scaled lipid accumulation score [1]: inactive: 0.368

O=c1cc(-c2ccccc2)oc2cc(O)c(O)c(O)c12 [Baicalein]
scaled lipid accumulation score [3]: inactive: 0.078
scaled lipid accumulation score [2]: inactive: ≤ 0
scaled lipid accumulation score [1]: inactive: ≤ 0 and inactive: ≤ -0.002 and inactive: ≤ -0.027

Br.Br.CN(CCc1ccc(Cl)c(Cl)c1)CCN1CCCC1 [BD 1008 dihydrobromide]
scaled lipid accumulation score [1]: active: 0.882

CC(C)CCCC(C)N (configuration not stated) [Octodrine]
scaled lipid accumulation score (library stock concentration: 15.5 mM): inactive: 0.024

CC(C)=CCC/C(C)=C/CC/C(C)=C/CC/C(C)=C/CC/C(C)=C/CC/C(C)=C/CC1=C(C)C(=O)c2ccccc2C1=O [Vitamin K2]
scaled lipid accumulation score: inactive: 0.008

Cn1ccnc1 [1-Methylimidazole]
scaled lipid accumulation score [1]: inactive: 0.068

CC1(c2ccccc2)OC(C(=O)O)=CC1=O (configuration not stated) [Acifran]
scaled lipid accumulation score [1]: inactive: ≤ -0.006

Clc1ccc(C(Cn2ccnc2)OCc2ccc(Sc3ccccc3)cc2)c(Cl)c1 (configuration not stated) [Fenticonazole Nitrate]
scaled lipid accumulation score [2]: inactive: 0.017
scaled lipid accumulation score [1]: inactive: 0.758

CC[C@H](C)C(=O)O[C@H]1C[C@@H](C)C=C2C=C[C@H](C)[C@H](CC[C@@H]3C[C@@H](O)CC(=O)O3)[C@H]21 [Lovastatin]
scaled lipid accumulation score: inactive: 0.438
scaled lipid accumulation score [2]: inactive: 0.039
scaled lipid accumulation score (library stock concentration: 4.9 mM): inactive: 0.066 and inactive: ≤ 0

Cc1c(C)c2c(c(C)c1O)CCC(C)(C(=O)O)O2 (configuration not stated) [Trolox]
scaled lipid accumulation score: inactive: 0.082

COc1cccc2cc(-c3nc([C@H]4CC[C@H](C(=O)O)CC4)n4ncnc(N)c34)[nH]c12
scaled lipid accumulation score (library stock concentration: 80 uM): inactive: ≤ 0
scaled lipid accumulation score (library stock concentration: 400 uM): inactive: 0.061
scaled lipid accumulation score (library stock concentration: 2 mM): inactive: ≤ 0
scaled lipid accumulation score [2]: inactive: 0.043
scaled lipid accumulation score [1]: inactive: ≤ 0

CS(=O)(=O)O.Cc1ccc(NC(=O)c2ccc(CN3CCN(C)CC3)cc2)cc1Nc1nccc(-c2cccnc2)n1
scaled lipid accumulation score [1]: active: 1.08

COC(=O)C(Cc1ccc(OCCn2c(=O)sc3cc(C(=O)c4ccccc4)ccc32)cc1)C(=O)OC
scaled lipid accumulation score [1]: inactive: ≤ 0

O=C1CCC[C@@H]2[C@H]3CCC[N+]4([O-])CCC[C@@H](CN12)[C@@H]34 (some centres not stated) [Oxymatrine]
scaled lipid accumulation score [2]: inactive: ≤ 0
scaled lipid accumulation score [1]: inactive: 0.019

CC(=O)CCCCn1cnc2c1c(=O)n(C)c(=O)n2C
scaled lipid accumulation score [1]: inactive: ≤ 0

CCCCC/C=C\C/C=C\CCCCCCCCCC(=O)O [Eicosadienoic acid (20:2 n-6)]
scaled lipid accumulation score [3]: inactive: 0.016

CC(C)n1c(/C=C/C(O)CC(O)CC(=O)O)c(-c2ccc(F)cc2)c2ccccc21 (configuration not stated) [Fluvastatin sodium salt]
scaled lipid accumulation score: inactive: 0.403

CC(C)n1c(/C=C/C(O)CC(O)CC(=O)O)c(-c2ccc(F)cc2)c2ccccc21 (configuration not stated) [Fluvastatin Sodium]
scaled lipid accumulation score [2]: inactive: 0.188
scaled lipid accumulation score [1]: inactive: 0.219

CC(C)n1c(/C=C/C(O)CC(O)CC(=O)O)c(-c2ccc(F)cc2)c2ccccc21 (configuration not stated) [fluvastatin]
scaled lipid accumulation score [1]: inactive: 0.549

CS(=O)(=O)O.N=C(N)SCCc1ccc(OCc2ccc([N+](=O)[O-])cc2)cc1 [KB-R7943 mesylate]
scaled lipid accumulation score [1]: active: 0.99

O=c1ccn([C@@H]2O[C@H](CO)[C@@H](O)[C@H]2O)c(=O)[nH]1 [Uridine]
scaled lipid accumulation score [2]: inactive: ≤ 0
scaled lipid accumulation score [1]: inactive: ≤ 0

CCCCCC(O)c1cccc(OCc2ccc3ccccc3n2)c1 (configuration not stated)
scaled lipid accumulation score [3]: inactive: ≤ 0 and inactive: 0.006

COc1ccc2[nH]c(-c3ccccc3)c(CCNC(C)=O)c2c1 [2-Phenylmelatonin]
scaled lipid accumulation score [1]: inactive: 0.014

CC(C)(C)c1ccc(C(=O)CCCN2CCC(OC(c3ccccc3)c3ccccc3)CC2)cc1 [Ebastine]
scaled lipid accumulation score [1]: inactive: ≤ -0.07

CCCCNc1cc(C(=O)O)cc(S(N)(=O)=O)c1Oc1ccccc1 [Bumetanide]
scaled lipid accumulation score: inactive: ≤ 0
scaled lipid accumulation score [2]: inactive: ≤ 0
scaled lipid accumulation score [1]: inactive: ≤ 0 and inactive: 0.26 and inactive: 0.178

Fc1ccc2[nH]c(CN3CCN(c4ccccn4)CC3)cc2c1
scaled lipid accumulation score [1]: inactive: ≤ 0

CNC(=O)c1c(I)c(C(=O)NCC(=O)Nc2c(I)c(C(=O)O)c(I)c(C(=O)NCCO)c2I)c(I)c(N(C)C(C)=O)c1I [Ioxaglic acid]
scaled lipid accumulation score: inactive: 0.014

C[C@H](Cn1cnc2c(N)ncnc21)OCP(=O)(O)O
scaled lipid accumulation score [1]: inactive: ≤ 0

O=c1ncc(F)c[nH]1 [5-fluoro-2-pyrimidone]
scaled lipid accumulation score [1]: inactive: ≤ 0

CC1(C)[C@H]2CC[C@@]1(C)C(=O)C2 [1r-camphor]
scaled lipid accumulation score [1]: inactive: ≤ 0

CC(=O)Oc1ccccc1C(=O)Oc1ccccc1C(=O)O [Acetylsalicylsalicylic acid]
scaled lipid accumulation score: inactive: ≤ 0

O=C1NCCc2[nH]c(-c3ccnc(-c4cnc5ccccc5c4)c3)cc21 [MK-2 Inhibitor III]
scaled lipid accumulation score [2]: inactive: ≤ 0

CNC[C@H](O)[C@@H](O)[C@H](O)[C@H](O)CO [Meglumine]
scaled lipid accumulation score: inactive: ≤ 0
scaled lipid accumulation score [2]: inactive: ≤ 0
scaled lipid accumulation score [1]: inactive: ≤ 0

Nc1ccc(S(=O)(=O)Nc2cnc3ccccc3n2)cc1 [Sulfaquinoxaline sodium salt]
scaled lipid accumulation score: inactive: ≤ 0

Nc1ccc(S(=O)(=O)Nc2cnc3ccccc3n2)cc1 [Sulfaquinoxaline sodium]
scaled lipid accumulation score (library stock concentration: 6.2 mM): inactive: 0.015

NCCCC(O)(P(=O)(O)O)P(=O)(O)O [Alendronate]
scaled lipid accumulation score (library stock concentration: 8.1 mM): inactive: 0.031

NCCCC(O)(P(=O)(O)O)P(=O)(O)O [Alendronate sodium]
scaled lipid accumulation score (library stock concentration: 6.1 mM): inactive: ≤ 0

N.N.O=C([O-])C[O-].[Pt+2] [Nedaplatin]
scaled lipid accumulation score (library stock concentration: 6.6 mM): inactive: 0.028

CC/C=C\C/C=C\C/C=C\C/C=C\CCCCCCC(=O)OCC [.omega.-3 Arachidonic Acid ethyl ester]
scaled lipid accumulation score [3]: inactive: ≤ 0

COC(=O)N[C@H](C(=O)N[C@@H](Cc1ccccc1)[C@@H](O)CN(Cc1ccc(-c2ccccn2)cc1)NC(=O)[C@@H](NC(=O)OC)C(C)(C)C)C(C)(C)C [Atazanavir Sulfate]
scaled lipid accumulation score [2]: inactive: ≤ 0
scaled lipid accumulation score [1]: inactive: ≤ 0

COC(=O)N[C@H](C(=O)N[C@@H](Cc1ccccc1)[C@@H](O)CN(Cc1ccc(-c2ccccn2)cc1)NC(=O)[C@@H](NC(=O)OC)C(C)(C)C)C(C)(C)C [Atazanavir]
scaled lipid accumulation score (library stock concentration: 2.8 mM): inactive: 0.048

COC(=O)Nc1ccc(-c2nc(N3CCOCC3)c3cnn(C4CCN(C(=O)OC)CC4)c3n2)cc1
scaled lipid accumulation score [2]: inactive: ≤ 0
scaled lipid accumulation score [1]: inactive: ≤ 0

CCCCCCCCCC[Si](C)(C)CCC(=O)NC(Cc1ccc(C)cc1)c1ccccc1 (configuration not stated) [Sandoz 58-035]
scaled lipid accumulation score [1]: inactive: ≤ 0

CCCCCCCCCCCC(=O)CC(=O)N[C@H]1CCOC1=O [N-3-oxo-tetradecanoyl-L-Homoserine lactone]
scaled lipid accumulation score [3]: inactive: ≤ 0

CNC(=O)c1c(F)cccc1Nc1nc(Nc2cc3c(cc2OC)CCN3C(=O)CN(C)C)nc2[nH]ccc12
scaled lipid accumulation score [2]: active: 0.98

OC(CC1c2ccccc2-c2cncn21)C1CCCCC1 (configuration not stated)
scaled lipid accumulation score [2]: inactive: ≤ -0.009
scaled lipid accumulation score [1]: inactive: 0.209

COc1ccc(C[C@H](N)C(=O)N[C@H]2[C@@H](O)[C@H](n3cnc4c(N(C)C)ncnc43)O[C@@H]2CO)cc1 [Puromycin dihydrochloride]
scaled lipid accumulation score: inactive: 0.211

COc1ccc(C[C@H](N)C(=O)N[C@H]2[C@@H](O)[C@H](n3cnc4c(N(C)C)ncnc43)O[C@@H]2CO)cc1 [Puromycin 2HCl]
scaled lipid accumulation score [2]: inactive: 0.16
scaled lipid accumulation score [1]: inactive: 0.281

COc1ccc(C[C@H](N)C(=O)N[C@H]2[C@@H](O)[C@H](n3cnc4c(N(C)C)ncnc43)O[C@@H]2CO)cc1
scaled lipid accumulation score (library stock concentration: 9.4 mM): inactive: 0.412

COc1ccc(C[C@H](N)C(=O)N[C@H]2[C@@H](O)[C@H](n3cnc4c(N(C)C)ncnc43)O[C@@H]2CO)cc1 [Puromycin hydrochloride]
scaled lipid accumulation score [1]: inactive: 0.352

From the supplement of paper PMC9135407
